# Test results from PubChem BioAssay AID1434 (Sanford-Burnham Center for Chemical Genomics, 2008).
# The other results are listed elsewhere or left out. The main result of the screen is listed elsewhere. These columns were measured beside it and carry no call. Most of these compounds were active or inconclusive in the main read-out, so they are no random draw.
# Target: Runt-related transcription factor 1 (Homo sapiens) + Core-binding factor subunit beta (Homo sapiens) (UniProt Q01196+Q13951)
# Test: inhibitors of RUNX1 Runt–CBFb-SMMHC binding, primary screen, biochemical, FRET, Cerulean-Runt, Venus-CBFb-SMMHC, uHTS (AID 1434);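 note: 0% = DMSO wells and 100% = wells with excess untagged CBFb-SMMHC; inhibitors lower the FRET ratio by blocking Runt binding to CBFb-SMMHC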
# Details: Cerulean-Runt/Venus-CBFb-SMMHC FRET ratio 530/480, 1 h; retest duplicate average; at 20 µM; stronger effect = higher value
# UniProt Q01196, sequence (Q01196 whole entry, looked up): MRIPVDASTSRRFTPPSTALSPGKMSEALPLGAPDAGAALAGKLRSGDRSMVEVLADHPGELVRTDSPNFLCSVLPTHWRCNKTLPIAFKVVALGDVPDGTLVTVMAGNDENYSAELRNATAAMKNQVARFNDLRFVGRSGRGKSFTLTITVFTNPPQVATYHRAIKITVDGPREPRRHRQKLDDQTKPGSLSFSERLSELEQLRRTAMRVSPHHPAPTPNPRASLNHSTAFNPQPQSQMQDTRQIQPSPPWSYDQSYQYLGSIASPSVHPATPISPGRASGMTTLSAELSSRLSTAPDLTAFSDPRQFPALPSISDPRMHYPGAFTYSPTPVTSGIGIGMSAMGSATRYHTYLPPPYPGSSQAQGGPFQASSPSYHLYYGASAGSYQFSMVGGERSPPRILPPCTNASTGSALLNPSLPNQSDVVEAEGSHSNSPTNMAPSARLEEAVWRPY
# UniProt Q01196, sequence (Q13951 whole entry, looked up): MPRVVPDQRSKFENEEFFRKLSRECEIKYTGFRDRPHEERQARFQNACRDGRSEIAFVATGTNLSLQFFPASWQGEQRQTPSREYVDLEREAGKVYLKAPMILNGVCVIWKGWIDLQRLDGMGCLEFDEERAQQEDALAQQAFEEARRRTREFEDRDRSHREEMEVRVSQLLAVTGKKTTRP
row,Structure (SMILES),inhibition [%]
1,O=c1oc2c(CN3CCN(CCO)CC3)c(O)ccc2cc1-c1ccccn1,70.6
2,CCS(=O)(=O)Nc1ccc(-c2nc3cccnc3s2)cc1,92.1
3,CCCc1cc(=O)oc2c(CN3CCN(C)CC3)c(O)c(Cl)cc12,182
4,COc1ccc(N=Cc2cc3c(cc2O)OC(N)=C(C#N)C3c2ccccc2)cc1 (centres undefined),52.8
5,Cc1nc(Cl)c2c(n1)NC1=C(O2)C(=O)CCC1,71.5
6,COc1ccc(C2C=C(c3ccccc3)Nc3ncnn32)cc1 (centres undefined),71.5
7,Cc1c(C)c2cc(Cl)c(O)c(CN3CCCC(C)C3)c2oc1=O (centres undefined),142
8,COc1ccccc1N1C(=O)C=C(Sc2nc(C)cc(C)n2)C1=O,60.2
9,CCc1nnc(NC(=O)c2sc3nc4c(cc3c2N)CCCCCC4)s1,61.7
10,CC(=O)c1c(N2CCN(Cc3ccccc3)CC2)nc(=S)n(-c2ccccc2)c1C,98.7
11,C/C(=N/NC(N)=S)c1cc2ccc(O)cc2oc1=O,70.6
12,C=CCOc1ccc(C2C(C#N)=C(N)N(Nc3ccccc3)C3=C2C(=O)CC(C)(C)C3)cc1OC (centres undefined),133
13,COc1ccc(OC)c(C2C3CN(C(C)C)CC=C3C(C#N)=C(N)C2(C#N)C#N)c1 (centres undefined),80.4
14,O=C1NC(c2ccco2)Nc2sc3c(c21)CCN(Cc1ccccc1)C3 (centres undefined),72.9
15,N=c1c(C(=O)NCc2ccc(F)cc2)cc2c(=O)n3ccccc3nc2n1CC1CCCO1 (centres undefined),72.9
16,N#Cc1c(N)n(-c2cccc(C(=O)O)c2)c2nc3ccccc3nc12,70.6
17,COC(=O)c1c(N)n(CCCN2CCOCC2)c2nc3ccccc3nc12,109
18,Cc1ccc2nc3c(cc2c1)c(NC(=O)C1CCCO1)nn3CC(C)C (centres undefined),69.7
19,CCNC(=O)/C(C#N)=C/c1c(N2CCN(Cc3ccc4c(c3)OCO4)CC2)nc2c(C)cccn2c1=O,103
20,Cc1cc(C)c2c(N)c3cccc(C)c3nc2n1,71.5
21,O=c1nc2n(Cc3ccccc3)c3ccccc3cc-2c(=O)[nH]1,71.5
22,COC(=O)C1=CN(CC2CCCO2)C=C(C(=O)OC)C1c1cccc(O)c1 (centres undefined),125
23,O=Cc1ccc(O)c2ncccc12,70.8
24,O=C(c1cccnc1)N(c1cc2sc(=O)oc2c2ccccc12)S(=O)(=O)c1ccccc1,42
25,COC(=O)c1c(C#N)c(N)nc2c1CCC2,132
26,Cc1cccn2c(=O)c(/C=C(\C#N)C(=O)NCc3ccco3)c(N3CCC(C(N)=O)CC3)nc12,71.7

row,Structure (SMILES),inhibition [%]
1,CCOCCCn1c(=NC(=O)c2cccs2)c(C#N)cc2c(=O)n3cccc(C)c3nc21,70.6
2,CCC(C)n1c(=N)c(C#N)cc2c(=O)n3cccc(C)c3nc21 (centres undefined),70.6
3,N=c1c(S(=O)(=O)c2ccccc2)cc2c(=O)n3ccccc3nc2n1CC1CCCO1 (centres undefined),72.9
4,CCOCCCn1c(=NC(C)=O)c(C#N)cc2c(=O)n3ccccc3nc21,70.6
5,O=C(CC1Sc2ccccc2NC1=O)OCc1cc(=O)oc2cc(O)ccc12 (centres undefined),101
6,O=c1[nH]c(=O)c2ncc(-c3ccc(Cl)cc3)nc2[nH]1,85.1
7,CCCCc1cc(=O)oc2c(CN3CCCC3)c(O)ccc12,96.8
8,Cc1cc2c(c(=O)n1CCc1ccccc1)C(c1ccco1)C(C#N)=C(N)O2 (centres undefined),89.1
9,N=c1oc2c3c4c(cc2cc1C(=O)Nc1ccccc1)CCCN4CCC3,72.9
10,CCCCNc1nc2sc3c(c2c(=O)n1-c1cccc(Cl)c1)CCN(C)C3,162
11,CCCCN(C)C1=CC2=CC(=C(C#N)C#N)CCC2CC1 (centres undefined),71.5
12,COc1cccc(-c2c3c([nH]c(=O)c2C#N)CCc2cc(OC)ccc2-3)c1,70.6
13,C=CCn1c(-c2cccs2)nc2nc3ccccc3nc21,136
14,O=C(Nc1nc2c(s1)CN(Cc1ccccc1)CC2)C1CCCC1,145
15,Cc1cccn2c(=O)c3cc(C(=O)NCc4cccnc4)c(=N)n(C(C)C)c3nc12,71.5
16,Cc1cc(=O)oc2c(CN3CCCCC3)c(O)c(Cl)cc12,133
17,N#C/C(=C\c1c(N2CCOCC2)nc2ccccn2c1=O)C(=O)NC1CCS(=O)(=O)C1 (centres undefined),70.6
18,CCC(=O)NC(Nc1sc2c(c1C(=O)OC)CCN(C)C2)(C(F)(F)F)C(F)(F)F,53.3
19,CCN1CCN(Cc2c(O)ccc3c2O/C(=C\c2ccccc2)C3=O)CC1,67.8
20,CCOC(=O)c1c(NC(=S)Nc2ccccc2)sc2c1CCN(CC)C2,135
21,N=c1c(C(=O)NC2CCCC2)cc2c(=O)n3ccccc3nc2n1CCN1CCOCC1,150
22,CCOC(=O)c1sc(Nc2nc3c(OC)cccc3s2)nc1C,144
23,CCCn1c(=N)c(C#N)cc2c(=O)n3ccccc3nc21,71.5
24,CC(=O)Nc1ccc(C2=NN(c3ccccc3)C(c3cccs3)C2)cc1 (centres undefined),60.7
25,Cc1cccn2c(=O)c(/C=C(\C#N)C(N)=O)c(Oc3ccccc3)nc12,159
26,CCc1c(C)c2cc(Cl)c(O)c(CN3CCCCC3)c2oc1=O,163

row,Structure (SMILES),inhibition [%]
1,CCOCCCn1c(=NC(C)=O)c(C(=O)OCC)cc2c(=O)n3ccccc3nc21,71.5
2,CCCCn1c(-c2ccc(Cl)cc2)nc2c(=O)n(C)c(=O)[nH]c21,63.9
3,Cc1ccc(CNC(=O)NCc2ccccc2)cc1,-5
4,CN(C)Cc1cc(O)c(CN(C)C)cc1O,58.9
5,Cc1ccc(S(=O)(=O)c2cc3c(=O)n4cccc(C)c4nc3n(Cc3ccco3)c2=N)cc1C,112
6,COc1cccc(-c2nc(-c3ccc4c(c3)-c3ccccc3S4(=O)=O)c(-c3ccccc3)[nH]2)c1OC,-46.7
7,COc1ccc(CCNC(=O)c2cc3c(=O)n4cccc(C)c4nc3n(Cc3ccncc3)c2=N)cc1,180
8,CCCOc1ccccc1-c1nc2c([nH]1)c(=O)[nH]c(=O)n2C,171
9,COC(=O)C1=CN(CCCN2CCCC2=O)C=C(C(=O)OC)C1c1cccs1,86.3
10,c1ccn2cc(-c3ccc4c(c3)OCO4)cc2c1,92.9
11,C=CCNc1nc(NCc2ccccc2)c(C#N)c2c1CN(C)CC2,72.9
12,CCCCn1c(NC(=O)c2ccccc2Cl)c(C#N)c2nc3ccccc3nc21,72.9
13,COc1ccc(C)cc1NC(=O)c1cc2c(=O)n3ccccc3nc2n1C,70.6
14,CCSc1n[nH]c2nc3c(c(=O)n12)C1(CCCC1)Cc1ccccc1-3,50.8
15,CCN(CC)c1ccc(-c2nn3c(-c4cccnc4)nnc3s2)cc1,91.9
16,CCN(CC)c1ccc2cc(C(=O)Nc3cccnc3N3CCOCC3)c(=O)oc2c1,98.8
17,Cc1cccn2c(=O)c(/C=C(\C#N)C(=O)NC3CCS(=O)(=O)C3)c(N3CCC(C)CC3)nc12 (centres undefined),71.5
18,CN1CC2(Cc3c1ccc1ccccc31)C(=O)OC(C)(C)OC2=O,118
19,CC(=O)c1cc2c(s1)-c1cc(F)ccc1OC2,70.6
20,CN1Cc2sc(NC(=S)NC(=O)c3ccccc3)c(C#N)c2CC1(C)C,136
21,CN(C)c1cccc(C(=O)OCc2cc(=O)oc3cc(O)ccc23)c1,128
22,CN(C)c1ccc(/C=C(\Cl)c2nc3ccccc3s2)cc1,60.2
23,CC1=C(C(=O)OCC2CCCO2)C(c2ccc(C)cc2)C2=C(CC(C)(C)CC2=O)N1 (centres undefined),60.4
24,CCN1C=C(C(=O)OC)C(c2cccc(C)c2)C(C(=O)OC)=C1,72.9
25,CCCCC(CC)Cn1c(N)c(C#N)c2nc3ccccc3nc21 (centres undefined),116
26,COc1ccc(-n2c3nc4ccccc4nc3c3c(=N)oc(C)nc32)cc1,127

row,Structure (SMILES),inhibition [%]
1,Nc1nc2nc(-c3cccs3)cc(C(F)(F)F)n2n1,70.6
2,N#Cc1c(N)n(-c2ccc(C(=O)O)cc2)c2nc3ccccc3nc12,70.6
3,CCN(CC)Cc1c(O)ccc2c(C)c(CC(=O)OC)c(=O)oc12,171
4,COC(=O)C1=CN(Cc2cccs2)C=C(C(=O)OC)C1c1ccc(OC)cc1OC,144
5,CCOc1cc(C2C3=C(CCCC3=O)N(CCC(=O)O)C3=C2C(=O)CCC3)ccc1OS(=O)(=O)c1ccc(C)cc1,71.5
6,COc1cc(SSc2cc(OC)cc([N+](=O)[O-])c2N)c(N)c([N+](=O)[O-])c1,52.1
7,COC(=O)C1=C(C)NC2=C(C(=O)CCC2)C1c1cccc(C)n1 (centres undefined),132
8,CCOC(=O)c1c(NS(=O)(=O)c2cccc(OC)c2)sc2c1CCC2,71.2
9,CCOC(=O)C1=C(C)NC2=C(C(=O)C(C(=O)OCC)C(c3ccc(OC)cc3)C2)C1c1ccccn1 (centres undefined),83.7
10,COc1cccc(C(=O)Nc2nc3c(s2)CN(C)CC3)c1,70.8
11,COc1ccc(-c2cc(C(F)F)n3ncc(C(=O)NCC4CCCO4)c3n2)cc1 (centres undefined),71.5
12,O=C(O)c1cc(-c2ccc(/C=C3\NC(=O)N(c4ccccc4)C3=O)o2)ccc1Cl,104
13,N#CC(C#N)=C1C=C2C=C(N3CCCCCC3)CCC2CC1 (centres undefined),71.5
14,CNc1nc(-c2ccccc2)[n+](-c2ccc(C)cc2)s1,56.7
15,COc1cc2nc3c4ccccc4n(CC#N)c3nc2cc1OC,77.4
16,Cc1ccc(N2C=Nc3ccc(C)c4nc(C)cc2c34)cc1,86.7
17,O=C(CCCCl)Oc1ccc2cc(-c3ccc4ccccc4n3)c(=O)oc2c1,71.5
18,CC(NC(=O)OC(C)(C)C)C(=O)Oc1ccc2ccc(=O)oc2c1 (centres undefined),117
19,Cn1c(C(=O)NCC2CCCO2)cc2c(=O)n3ccccc3nc21 (centres undefined),54.2
20,CN1C=CC2=C(C#N)C(N)C(C#N)(C#N)C(c3ccccc3)C2C1 (centres undefined),71.5
21,CCOCCCNC(=O)/C(C#N)=C/c1cc(Br)c(O)c(Br)c1,151
22,Cc1cc(C)cc(Oc2nc3ccccn3c(=O)c2/C=C(\C#N)C(=O)NC2CCS(=O)(=O)C2)c1 (centres undefined),88
23,CCOCCCNC(=O)c1c(N)n(-c2ccc(S(N)(=O)=O)cc2)c2nc3ccccc3nc12,99.3
24,Cc1cccn2c(=O)c3cc(C(N)=S)c(=N)n(CCCN4CCOCC4)c3nc12,70.6
25,CCN1CCc2nc(NC(=O)CC(c3ccccc3)c3ccccc3)sc2C1,52.2
26,Cc1ccccc1-n1c(=O)cc(N2CCc3ccccc3C2)[nH]c1=O,84.8
